The results in this text go back to PubChem BioAssay AID2202238 (Ras Initiative Chemistry Research Team, Frederick National …, 2025).

The test addresses GTPase KRas (Homo sapiens) (UniProt P01116). As to the kind of experiment: Covalent labelling of cysteine mutants by fragments, read by mass spectrometry (AID 2202238). Also on record: protein at 5 µM with 500 µM competing thiol for 1.5 h. As to conditions: KRAS G12D cysteine mutants, disulfide tethering, MALDI-TOF labeling, stronger effect = higher value, fragment at 500 µM.
Where [1] appears, read: measured here: G60C mutant labeling.
Where [2] appears, read: measured here: G75C mutant labeling.
Where [3] appears, read: measured here: H94C mutant labeling.
[4] abbreviates: measured here: I36C mutant labeling.
[5] abbreviates: measured here: L120C mutant labeling.
The mark [6] stands for this setting: measured here: M67C mutant labeling.
[7] abbreviates: measured here: M72C mutant labeling.
[8] abbreviates: measured here: N26C mutant labeling.
[9] abbreviates: measured here: N86C mutant labeling.
Setting [10] is: measured here: P121C mutant labeling.
[11] abbreviates: measured here: S122C mutant labeling.
Where [12] appears, read: measured here: S136C mutant labeling.

The other results are listed elsewhere or left out. The main result of the screen is listed elsewhere. These columns were measured beside it and carry no call.

Sequence of UniProt P01116 (P01116 whole entry, looked up, the tested form may be a part): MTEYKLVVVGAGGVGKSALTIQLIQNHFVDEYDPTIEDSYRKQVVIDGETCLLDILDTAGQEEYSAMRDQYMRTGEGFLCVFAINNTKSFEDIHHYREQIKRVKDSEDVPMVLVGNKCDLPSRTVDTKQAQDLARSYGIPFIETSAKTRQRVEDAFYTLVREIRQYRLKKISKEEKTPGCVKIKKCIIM

`O=C(CCCc1c[nH]c2ccccc12)NCCS`: the percent labeling amounted to 32.5% under setting [1]; 16.6% under setting [2]; 18.6% under setting [3]; 12% under setting [4]; 24.4% under setting [5]; 46.3% under setting [6]. The percent labeling is, setting by setting: under setting [7], 32.7%; under setting [8], 24.9%; under setting [9], 14.1%; under setting [10], 16.5%; under setting [11], 12.5%; under setting [12], 25.3%.

On to `O=C(NCCS)c1ccc2c(Br)cnn2c1`, for which the percent labeling under setting [1] came to 22.8%; the percent labeling under setting [2] stood at 6.4%; the percent labeling under setting [3] worked out at 8.4%; the percent labeling under setting [4] was 9%; the percent labeling under setting [5] worked out at 9.3%; the percent labeling under setting [6] was determined as 8%. In addition, the percent labeling reads like this: under setting [7], 20.6%; under setting [8], 19.7%; under setting [9], 10.5%; under setting [10], 9.4%; under setting [11], 6.8%; under setting [12], 11.2%.

With `O=C(NCCS)c1occc1-c1ccc(F)cc1`, the percent labeling is, setting by setting: under setting [1], 30.5%; under setting [2], 19.9%; under setting [3], 25.2%; under setting [4], 10.7%; under setting [5], 27.2%; under setting [6], 15.1%. The percent labeling is 44.1% under setting [7]; 26.9% under setting [8]; 5.5% under setting [9]; 11.5% under setting [10]; 8.4% under setting [11]; 24.4% under setting [12].

Regarding `C[C@H]1OCC(=O)N(Cc2ccccc2)[C@@H]1C(=O)NCCS`, the percent labeling is 38.4% under setting [1]; 13.7% under setting [2]; 37.4% under setting [3]; 31.7% under setting [4]; 29.1% under setting [5]; 42.2% under setting [6]. For the same compound, the percent labeling reads like this: under setting [7], 29.7%; under setting [8], 36.9%; under setting [9], 34.3%; under setting [10], 38.3%; under setting [11], 36.8%; under setting [12], 58.9%.

As for `O=C(CCS)N(c1ccc(F)cc1)C1CCC1`, the percent labeling was determined as 20.8% under setting [2]; 50.7% under setting [3]; 36.4% under setting [4]; 20.2% under setting [5]; 30.5% under setting [6]; 52.3% under setting [7]. Moreover, the percent labeling under setting [9] is 26.8%, the percent labeling under setting [10] stood at 31.8%, the percent labeling under setting [11] was 28.5% and the percent labeling under setting [12] turned out to be 51.5%.

With `O=C(NCCS)C1CC(=O)N(CCc2ccc(F)cc2)C1` (configuration not stated), the percent labeling is 46.4% under setting [1]; 18.8% under setting [2]; 41.1% under setting [3]; 37.7% under setting [4]; 44.1% under setting [5]; 42% under setting [6]. Further, the percent labeling worked out at 41.5% under setting [7]; 50.8% under setting [8]; 28.5% under setting [9]; 36.3% under setting [10]; 33.2% under setting [11]; 55.6% under setting [12].

As for `COc1nc(C)ccc1CNC(=O)CCS`, the percent labeling reads like this: under setting [2], 17.3%; under setting [3], 29.6%; under setting [4], 40.8%; under setting [5], 23.3%; under setting [6], 37.4%; under setting [7], 26.9%. The percent labeling reads like this: under setting [9], 17.9%; under setting [10], 33.4%; under setting [11], 31.7%; under setting [12], 52.7%.

Turning to `O=C(CCS)NCc1ccc(CN2C(=O)CNC2=O)cc1`, the percent labeling runs as follows: under setting [2], 13%; under setting [3], 36.6%; under setting [4], 42.4%; under setting [5], 34.5%; under setting [6], 36.1%; under setting [7], 25.9%. Further, the percent labeling turned out to be 32.3% under setting [9], 32% under setting [10], 36.4% under setting [11] and 46.6% under setting [12].

For `O=C(NCCS)c1ncoc1-c1ccc(F)cc1`, the percent labeling is 26.4% under setting [1]; 25.8% under setting [2]; 27.3% under setting [3]; 9% under setting [4]; 33.7% under setting [5]; 21.6% under setting [6]. For the same compound, the percent labeling runs as follows: under setting [7], 57.6%; under setting [8], 22%; under setting [9], 13.1%; under setting [10], 14.6%; under setting [11], 14%; under setting [12], 26.3%.

Turning to `O=C(NCCS)c1csc(COc2ccc(F)cc2)n1`, the percent labeling is, setting by setting: under setting [1], 20.5%; under setting [2], 13.1%; under setting [3], 17.2%; under setting [4], 18%; under setting [5], 17.8%; under setting [6], 13.5%. Further, the percent labeling stood at 40.9% under setting [7]; 14.9% under setting [8]; 11.1% under setting [9]; 13.6% under setting [10]; 8.9% under setting [11]; 23.2% under setting [12].

Turning to `Cc1nc(C(=O)N2CCC(C(=O)NCCS)CC2)c(C)o1`, the percent labeling is, setting by setting: under setting [1], 26%; under setting [2], 10.7%; under setting [3], 32.7%; under setting [4], 23.3%; under setting [5], 33.5%; under setting [6], 26.2%. The percent labeling is, setting by setting: under setting [7], 11.7%; under setting [8], 31.7%; under setting [9], 21.4%; under setting [10], 28%; under setting [11], 28.1%; under setting [12], 45%.

With `CC(C(=O)NCCS)N1CCCCCC1` (configuration not stated), the percent labeling is, setting by setting: under setting [1], 36.6%; under setting [2], 18.5%; under setting [3], 42.3%; under setting [4], 37.6%; under setting [5], 27.6%; under setting [6], 45.4%. Moreover, the percent labeling runs as follows: under setting [7], 24.3%; under setting [8], 39.8%; under setting [9], 25.9%; under setting [10], 35.8%; under setting [11], 30.2%; under setting [12], 44.4%.

`O=C(NCCS)C1CCCc2sc(Nc3ccccc3)nc21` (configuration not stated): the percent labeling is, setting by setting: under setting [1], 34.7%; under setting [2], 16%; under setting [3], 17.7%; under setting [4], 9.6%; under setting [5], 17.8%; under setting [6], 12.2%. This compound gave a percent labeling under setting [7] of 25.1%; a percent labeling under setting [8] of 22.8%; a percent labeling under setting [9] of 7.8%; a percent labeling under setting [10] of 8.4%; a percent labeling under setting [11] of 3.5%; a percent labeling under setting [12] of 10.1%.

`CC(C)(Oc1c(F)cccc1F)C(=O)NCCS`: the percent labeling amounted to 52.8% under setting [1]; 28.4% under setting [2]; 39.5% under setting [3]; 14.5% under setting [4]; 27.7% under setting [5]; 21.4% under setting [6]. Further, the percent labeling is, setting by setting: under setting [7], 25.4%; under setting [8], 37.1%; under setting [9], 19.1%; under setting [10], 51.5%; under setting [11], 21.1%; under setting [12], 36.4%.

Consider `CC(=O)N1CCc2cc(C(=O)NCCS)ccc21`, for which the percent labeling came to 32.4% under setting [1]; 15.4% under setting [2]; 21.7% under setting [3]; 21.3% under setting [4]; 24.2% under setting [5]; 25.2% under setting [6]. Also, the percent labeling reads like this: under setting [7], 37.2%; under setting [8], 47.6%; under setting [9], 18.3%; under setting [10], 20.2%; under setting [11], 21.7%; under setting [12], 34.1%.

Regarding `O=C(CCS)Nc1ccccc1-c1ncc2n1CCCC2`, the percent labeling is, setting by setting: under setting [2], 16.7%; under setting [3], 40.7%; under setting [4], 51.8%; under setting [5], 29.7%; under setting [6], 49.6%; under setting [7], 37.2%. Besides, the percent labeling by setting is: under setting [9], 31.3%; under setting [10], 31.3%; under setting [11], 31.3%; under setting [12], 56.7%.

On to `CN1CCN(CCc2cccc(NC(=O)CCS)c2)CC1`, for which the percent labeling runs as follows: under setting [2], 11%; under setting [3], 44%; under setting [4], 49.9%; under setting [5], 30.5%; under setting [6], 43.5%; under setting [7], 35.3%. Also, the percent labeling by setting is: under setting [9], 34.6%; under setting [10], 29%; under setting [11], 26.3%; under setting [12], 49.3%.

Consider `O=C(NCCS)c1cc2scc(Br)c2s1`, for which the percent labeling reads like this: under setting [1], 27.5%; under setting [2], 7.9%; under setting [3], 9.6%; under setting [4], 9.8%; under setting [5], 5.7%; under setting [6], 7.1%. Besides, the percent labeling is, setting by setting: under setting [7], 30.2%; under setting [8], 21.8%; under setting [9], 10.4%; under setting [10], 7.9%; under setting [11], 5.8%; under setting [12], 8.6%.

On to `Cc1nn(C(C)(C)C)c2nc(C(C)C)cc(C(=O)NCCS)c12`, for which the percent labeling reads like this: under setting [1], 21.5%; under setting [2], 13.5%; under setting [3], 13.7%; under setting [4], 7.4%; under setting [5], 9.7%; under setting [6], 7.7%. For the same compound, the percent labeling is, setting by setting: under setting [7], 22.9%; under setting [8], 17.1%; under setting [9], 9.3%; under setting [10], 10.4%; under setting [11], 4.3%; under setting [12], 22.8%.

Regarding `O=C(NCCS)c1ncccc1Br`, the percent labeling runs as follows: under setting [1], 32.2%; under setting [2], 21.3%; under setting [3], 37.7%; under setting [4], 23.7%; under setting [5], 48.1%; under setting [6], 29.7%. The percent labeling was 32.8% under setting [7]; 38.5% under setting [8]; 40.8% under setting [9]; 32.8% under setting [10]; 33.6% under setting [11]; 45.9% under setting [12].

The compound `CC1(C(=O)NCCS)CCN(c2ccc(Cl)cc2C#N)CC1` had a percent labeling under setting [1] of 25.2%; a percent labeling under setting [2] of 8.8%; a percent labeling under setting [3] of 12.8%; a percent labeling under setting [4] of 8.1%; a percent labeling under setting [5] of 11.2%; a percent labeling under setting [6] of 9.3%. In addition, the percent labeling by setting is: under setting [7], 24.5%; under setting [8], 29.2%; under setting [9], 7.7%; under setting [10], 9.3%; under setting [11], 5.6%; under setting [12], 15.3%.

Compound `O=C(CCS)NCc1cccnc1Oc1cccc(F)c1` showed a percent labeling under setting [2] of 14.9%; a percent labeling under setting [3] of 36.6%; a percent labeling under setting [4] of 35.6%; a percent labeling under setting [5] of 29.3%; a percent labeling under setting [6] of 46.1%; a percent labeling under setting [7] of 43.9%. Moreover, the percent labeling came to 26.5% under setting [9], 32.3% under setting [10], 35% under setting [11] and 61.3% under setting [12].

On to `Cc1c(NC(=O)CCS)cnn1CC(C)(C)O`, for which the percent labeling is 9.4% under setting [2]; 26.7% under setting [3]; 30.3% under setting [4]; 26.3% under setting [5]; 28.2% under setting [6]; 15.1% under setting [7]. For the same compound, the percent labeling by setting is: under setting [9], 23%; under setting [10], 31.5%; under setting [11], 36.2%; under setting [12], 49%.
